# Assay results reported in the supplement of paper PMC8728848.
# Some of the results follow.
# B1: Gal 1 (Canis lupus) (protein)
# chain: MACGLVASNLSLKPGQCLRVQCEVVPEAKSFVLNLGKDGDNLCLHFNPRFEAHGDVNTIVCNSKDGGAWGEELRESAFPFQPGTVTEVCISFDQADLTIKLPDGYTFKFPNRLNLEAISYLAADGDMKIKCLAFD
# Tests used:
# Assay in all cases: glycan array binding signal (z-score within array); higher = stronger binding
# Conditions in all cases: glycan notation: IUPAC condensed, linker removed
# [1] = biological target: GlcNAc6S(b1-3)Gal(b1-4)GlcNAc
# Method in brief: (§1)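 Arrays were curated from the Consortium for Functional Glycomics database, 3228 in total, and kept only where the protein sequence was available. Binding is expressed as a within-array Z-score. This score was averaged across arrays of the same protein sequence at different concentrations or buffers and across linkers, and negative values can be read as non-binding.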
# Kdn(a2-3)Gal(b1-3)GalNAc = biological target: Kdn(a2-3)Gal(b1-3)GalNAc
# Method in brief: as §1
# Kdn(a2-3)Gal(b1-3)GlcNAc = biological target: Kdn(a2-3)Gal(b1-3)GlcNAc
# Method in brief: as §1
# Kdn(a2-3)Gal(b1-4)Glc = biological target: Kdn(a2-3)Gal(b1-4)Glc
# Method in brief: as §1
# Kdn(a2-3)Gal(b1-4)GlcNAc = biological target: Kdn(a2-3)Gal(b1-4)GlcNAc
# Method in brief: as §1
# [2] = biological target: Kdn(a2-3)Gal(b1-4)[Fuc(a1-3)]GlcNAc
# Method in brief: as §1
# Kdn(a2-6)Gal(b1-4)GlcNAc = biological target: Kdn(a2-6)Gal(b1-4)GlcNAc
# Method in brief: as §1
# [3] = biological target: Man(a1-2)Man(a1-2)Man(a1-3)Man
# Method in brief: as §1
# [4] = biological target: Man(a1-2)Man(a1-2)Man(a1-6)[Man(a1-3)]Man
# Method in brief: as §1
# Man(a1-2)Man(a1-3)Man = biological target: Man(a1-2)Man(a1-3)Man
# Method in brief: as §1
# [5] = biological target: Man(a1-2)Man(a1-3)[Man(a1-2)Man(a1-6)]Man
# Method in brief: as §1
# [6] = biological target: Man(a1-2)Man(a1-3)[Man(a1-2)Man(a1-6)]Man(a1-6)[Man(a1-2)Man(a1-2)Man(a1-3)]Man
# Method in brief: as §1
# [7] = biological target: Man(a1-2)Man(a1-3)[Man(a1-2)Man(a1-6)]Man(a1-6)[Man(a1-2)Man(a1-2)Man(a1-3)]Man(b1-4)GlcNAc(b1-4)GlcNAc
# Method in brief: as §1
# [8] = biological target: Man(a1-2)Man(a1-3)[Man(a1-6)]Man(a1-6)[Man(a1-2)Man(a1-3)]Man(b1-4)GlcNAc(b1-4)GlcNAc
# Method in brief: as §1
# [9] = biological target: Man(a1-2)Man(a1-6)[Man(a1-3)]Man(a1-6)[Man(a1-2)Man(a1-2)Man(a1-3)]Man
# Method in brief: as §1
# [10] = biological target: Man(a1-2)Man(a1-6)[Man(a1-3)]Man(a1-6)[Man(a1-2)Man(a1-2)Man(a1-3)]Man(b1-4)GlcNAc(b1-4)GlcNAc
# Method in brief: as §1
# Man(a1-3)[Man(a1-6)]Man = biological target: Man(a1-3)[Man(a1-6)]Man
# Method in brief: as §1
# [11] = biological target: Man(a1-3)[Man(a1-6)]Man(a1-6)[Man(a1-2)Man(a1-3)]Man(b1-4)GlcNAc(b1-4)GlcNAc
# Method in brief: as §1
# [12] = biological target: Man(a1-3)[Man(a1-6)]Man(a1-6)[Man(a1-3)]Man
# Method in brief: as §1
# [13] = biological target: Man(a1-3)[Man(a1-6)]Man(a1-6)[Man(a1-3)]Man(b1-4)GlcNAc(b1-4)GlcNAc
# Method in brief: as §1
# [14] = biological target: Man(a1-3)[Man(a1-6)]Man(b1-4)GlcNAc(b1-4)GlcNAc
# Method in brief: as §1
# Man(a1-6)Man = biological target: Man(a1-6)Man
# Method in brief: as §1
# Man(b1-4)GlcNAc = biological target: Man(b1-4)GlcNAc
# Method in brief: as §1
# Neu5Ac(a2-3)Gal = biological target: Neu5Ac(a2-3)Gal
# Method in brief: as §1
# [15] = biological target: Neu5Ac(a2-3)Gal(b1-3)GalNAc
# Method in brief: as §1
# [16] = biological target: Neu5Ac(a2-3)Gal(b1-3)GalNAc(b1-3)Gal(a1-4)Gal(b1-4)Glc
# Method in brief: as §1
# [17] = biological target: Neu5Ac(a2-3)Gal(b1-3)GalNAc(b1-4)[Neu5Ac(a2-3)]Gal(b1-4)Glc
# Method in brief: as §1
# [18] = biological target: Neu5Ac(a2-3)Gal(b1-3)GalNAc6S
# Method in brief: as §1
# [19] = biological target: Neu5Ac(a2-3)Gal(b1-3)GlcNAc
# Method in brief: as §1
# [20] = biological target: Neu5Ac(a2-3)Gal(b1-3)GlcNAc(b1-2)Man(a1-3)[Neu5Ac(a2-3)Gal(b1-3)GlcNAc(b1-2)Man(a1-6)]Man(b1-4)GlcNAc(b1-4)GlcNAc
# Method in brief: as §1
# [21] = biological target: Neu5Ac(a2-3)Gal(b1-3)GlcNAc(b1-3)Gal(b1-3)GlcNAc
# Method in brief: as §1
# [22] = biological target: Neu5Ac(a2-3)Gal(b1-3)GlcNAc(b1-3)Gal(b1-4)GlcNAc
# Method in brief: as §1
# [23] = biological target: Neu5Ac(a2-3)Gal(b1-3)GlcNAc(b1-3)GalNAc
# Method in brief: as §1
# [24] = biological target: Neu5Ac(a2-3)Gal(b1-3)GlcNAc6S
# Method in brief: as §1
# [25] = biological target: Neu5Ac(a2-3)Gal(b1-3)[Fuc(a1-4)]GlcNAc
# Method in brief: as §1
# [26] = biological target: Neu5Ac(a2-3)Gal(b1-3)[Fuc(a1-4)]GlcNAc(b1-3)Gal(b1-3)[Fuc(a1-4)]GlcNAc
# Method in brief: as §1
# [27] = biological target: Neu5Ac(a2-3)Gal(b1-3)[Fuc(a1-4)]GlcNAc(b1-3)Gal(b1-4)[Fuc(a1-3)]GlcNAc
# Method in brief: as §1
# [28] = biological target: Neu5Ac(a2-3)Gal(b1-3)[Neu5Ac(a2-3)Gal(b1-4)]GlcNAc
# Method in brief: as §1
# [29] = biological target: Neu5Ac(a2-3)Gal(b1-3)[Neu5Ac(a2-6)]GalNAc
# Method in brief: as §1
# Neu5Ac(a2-3)Gal(b1-4)Glc = biological target: Neu5Ac(a2-3)Gal(b1-4)Glc
# Method in brief: as §1
# [30] = biological target: Neu5Ac(a2-3)Gal(b1-4)GlcNAc
# Method in brief: as §1
# [31] = biological target: Neu5Ac(a2-3)Gal(b1-4)GlcNAc(b1-2)Man(a1-3)[GlcNAc(b1-2)Man(b1-4)GlcNAc(b1-2)Man(a1-6)]Man(b1-4)GlcNAc(b1-4)GlcNAc
# Method in brief: as §1
# [32] = biological target: Neu5Ac(a2-3)Gal(b1-4)GlcNAc(b1-2)Man(a1-3)[Neu5Ac(a2-6)Gal(b1-4)GlcNAc(b1-2)Man(a1-6)]Man(b1-4)GlcNAc(b1-4)GlcNAc
# Method in brief: as §1
# [33] = biological target: Neu5Ac(a2-3)Gal(b1-4)GlcNAc(b1-3)Gal(b1-3)GlcNAc
# Method in brief: as §1
# [34] = biological target: Neu5Ac(a2-3)Gal(b1-4)GlcNAc(b1-3)Gal(b1-4)GlcNAc
# Method in brief: as §1
binder,measurement,setting,value
B1,glycan array binding signal (z-score),[1],0.006
same,glycan array binding signal (z-score),Kdn(a2-3)Gal(b1-3)GalNAc,-0.309
same,glycan array binding signal (z-score),Kdn(a2-3)Gal(b1-3)GlcNAc,0.313
same,glycan array binding signal (z-score),Kdn(a2-3)Gal(b1-4)Glc,-0.303
same,glycan array binding signal (z-score),Kdn(a2-3)Gal(b1-4)GlcNAc,0.013
same,glycan array binding signal (z-score),[2],-0.319
same,glycan array binding signal (z-score),Kdn(a2-6)Gal(b1-4)GlcNAc,-0.302
same,glycan array binding signal (z-score),[3],-0.33
same,glycan array binding signal (z-score),[4],-0.323
same,glycan array binding signal (z-score),Man(a1-2)Man(a1-3)Man,-0.306
same,glycan array binding signal (z-score),[5],-0.319
same,glycan array binding signal (z-score),[6],-0.331
same,glycan array binding signal (z-score),[7],-0.334
same,glycan array binding signal (z-score),[8],-0.334
same,glycan array binding signal (z-score),[9],-0.329
same,glycan array binding signal (z-score),[10],-0.336
same,glycan array binding signal (z-score),Man(a1-3)[Man(a1-6)]Man,-0.331
same,glycan array binding signal (z-score),[11],-0.337
same,glycan array binding signal (z-score),[12],-0.338
same,glycan array binding signal (z-score),[13],-0.304
same,glycan array binding signal (z-score),[14],-0.318
same,glycan array binding signal (z-score),Man(a1-6)Man,-0.336
same,glycan array binding signal (z-score),Man(b1-4)GlcNAc,-0.316
same,glycan array binding signal (z-score),Neu5Ac(a2-3)Gal,-0.316
same,glycan array binding signal (z-score),[15],-0.316
same,glycan array binding signal (z-score),[16],-0.33
same,glycan array binding signal (z-score),[17],-0.296
same,glycan array binding signal (z-score),[18],-0.333
same,glycan array binding signal (z-score),[19],0.165
same,glycan array binding signal (z-score),[20],0.24
same,glycan array binding signal (z-score),[21],1.25
same,glycan array binding signal (z-score),[22],1.66
same,glycan array binding signal (z-score),[23],0.266
same,glycan array binding signal (z-score),[24],-0.31
same,glycan array binding signal (z-score),[25],-0.327
same,glycan array binding signal (z-score),[26],-0.298
same,glycan array binding signal (z-score),[27],-0.322
same,glycan array binding signal (z-score),[28],-0.327
same,glycan array binding signal (z-score),[29],-0.299
same,glycan array binding signal (z-score),Neu5Ac(a2-3)Gal(b1-4)Glc,-0.03
same,glycan array binding signal (z-score),[30],0.135
same,glycan array binding signal (z-score),[31],3.31
same,glycan array binding signal (z-score),[32],0.466
same,glycan array binding signal (z-score),[33],0.446
same,glycan array binding signal (z-score),[34],0.533
